From PMC12136788 come the findings set out here.

This is one part of the list.

Sequences and labels used below:
B1: chr11:119418913:119419014:-|3pUTR|ENSG00000154096|msi1|total|mutant (ssRNA)
RNA: GGGAGUUCUACAGUCCGACGAUCAUCGGGACCAGAAACCUGGGAGAGACUUGGAUGAGGAGUGGUUGGGCUGUGCCUGGGCCCCGCACGGACAUGGUCUGUCCUGACAGCACUCCUCGGCAGGCAUGGCUGGUGCCUGAAGACCAACAGAGGAUUGAGCAUCA
B2: chr17:5384886:5384987:+|3pUTR|ENSG00000029725|unk|FALSE|unique (ssRNA)
RNA: GGGAGUUCUACAGUCCGACGAUCGGUUUAAGACUAGUCCCUUGGAUAAGCCCCAAGCGAAUUUGUCUUCAGAUUAUUAAAAUUAGUGCUGUAAAUCAGGGUGGGCAAUUCACAGCCUUUCUGAACUGACUGAACUAGAGCUUGCAACAGAGGAUUGAGCAUCA
B3: chr12:39618871:39619093:-|CDS|ENSG00000173208|unk|FALSE|unique (ssRNA)
RNA: GGGAGUUCUACAGUCCGACGAUCUAUUAUGAUGUUCUCCCAAUCUGUGGCUCACUUGUAUUCCAAUCUGACCAAACCUAUUUUAGAUGUAAUGCUGACCUCCUAUACACUCAUUCAAACUGCUACAUCCAGAGGAGCAAGCCCCAACAGAGGAUUGAGCAUCA
B4: ENSG00000107863:be:win_1701|CDS|ENSG00000107863|bound_else_gene|NA|bound_elsewhere_windowed (ssRNA)
RNA: GGGAGUUCUACAGUCCGACGAUCUGAUAACAGGCGAAUGAGUGGUAGAGGAGUGGGAUCUGUGUCGCAGUUUAAAAAAAUUCCACCAGAUCUAAAAACAUUGCAGUCAAACAGAAAUUUUCAGACUACUUGUGGAAUGUCACUCAACAGAGGAUUGAGCAUCA
B5: chr11:7467339:7467451:+|3pUTR|ENSG00000170743|unk|FALSE|unique (ssRNA)
RNA: GGGAGUUCUACAGUCCGACGAUCCCAAGAGAAUACCAAGACAAGCAGGCUGUUCCCUGGAAAAAAUCUAAUGCAAGGAGGGCUAGUUCACAGCAAAUUCACUGCCUCCUCCCAUGCACGUGGUAGAGAGUACCAGUAUCAACACAACAGAGGAUUGAGCAUCA
B6: ENSG00000139233:stop:overlap|stop_codon|ENSG00000139233|stop_codon|NA|stop_codon (ssRNA)
RNA: GGGAGUUCUACAGUCCGACGAUCAGAAAAGAAAGGGGAAAAGCAAAGCAAAAGCAGUGAAAGUGGCAAAGGGUUUGGCCUGGUAGACUCUUAAAACCUUGGAAAAUGCCACAUGGGAUAGAUGACGGAUUAGAAUGUAUACACCAACAGAGGAUUGAGCAUCA
B7: chr19:12875797:12875908:-|3pUTR|ENSG00000105612|unk|FALSE|unique (ssRNA)
RNA: GGGAGUUCUACAGUCCGACGAUCUUCGAGACCAGCCUGGGCUACAUAGUGAGACCACAUCUCUACUAGAACUUAAAAAAAGUUAGCCAGGCACGGUGAUAAAUGCCUGUAGUCCCAGCCACUGAAGCCAGAGGAUCGAUUGAACAACAGAGGAUUGAGCAUCA
B8: ENSG00000070961:be:win_4351|3pUTR|ENSG00000070961|bound_else_gene|NA|bound_elsewhere_windowed (ssRNA)
RNA: GGGAGUUCUACAGUCCGACGAUCGAAAAAAACAAAACAAAACAAAAAAACAUGAGCAGUGGUGUUCUAAUGAAGUUAUGACAUCUGUCCUAAUUAGUUUCUUAAAUACAUUUACUACUUAAUGGUUUUGAAGCAACUGUUUAACAACAGAGGAUUGAGCAUCA
B9: chr12:109554177:109554278:-|3pUTR|ENSG00000139428|unk|FALSE|unique (ssRNA)
RNA: GGGAGUUCUACAGUCCGACGAUCUUGCUAUGUGCAGUGCCCUGAGCCAAGUGUUCCACAGACAUUAUCUCAUUUGAACCCCAUAGCAGCCCUGGAAGGAGGCAUUGGGUGGGGAACCAAGUUGUCCUGGGGAGUCAGUGCCAACAACAGAGGAUUGAGCAUCA
B10: chr10:80519475:80519574:+|3pUTR|ENSG00000108219|msi1_unk|FALSE|overlapping (ssRNA)
RNA: GGGAGUUCUACAGUCCGACGAUCAGUGUGGUGUAUACUGGUGGCUGUUGAUGAUGAUUUUUUUUUUUUUACACAAUUCUCUGUAGACUAGGAGAAGAAUGCUUGUGUUUUUCGGAAGUGUGAUGCUUCUCUUUGACUGCCAAACAACAGAGGAUUGAGCAUCA
B11: chr11:43494716:43494817:+|3pUTR|ENSG00000052841|unk|total|mutant (ssRNA)
RNA: GGGAGUUCUACAGUCCGACGAUCGUUACCCAUCUUGGAAUAAGUUGUGAAUGUCAGCUCCCUCUCUCUGAGGCCUCCAGACUCCGCUCCUCAGGAGGGUAAUGAGCCAAGGUUGAGUGUUUCCAUACAAUGCUUUUACCUUUGCAACAGAGGAUUGAGCAUCA
B12: chr11:118751385:118751486:-|3pUTR|ENSG00000110367|msi1|total|mutant (ssRNA)
RNA: GGGAGUUCUACAGUCCGACGAUCUUGAAGUCUCUUCCCUUUCUACCCAGUACUCGAGCCCAGGGCCCGAAGUUGAAACUCACCCGUAAUGUUAAACACCAUUUUUUUUUUCUUUUUGGGGAGGAGUUGAUAUGCAACUGCAGUCAACAGAGGAUUGAGCAUCA
B13: chr15:89832191:89832292:-|3pUTR|ENSG00000157823|msi1|FALSE|unique (ssRNA)
RNA: GGGAGUUCUACAGUCCGACGAUCCUAGGUAGCUGGAACCACAGGCACGCAACCACCACUCCUGGCUAGUUUUAUUUUUUUAGUAGAAUAAGGUCUCACUAUGUUGCACAGGCUGGUCUCUAACUCCUUACCUCAAGCCAUCCUCAACAGAGGAUUGAGCAUCA
B14: chr21:36416827:36416928:+|3pUTR|ENSG00000159259|unk|FALSE|unique (ssRNA)
RNA: GGGAGUUCUACAGUCCGACGAUCAACUUUGGAAGGUAGUUGUGUUUGUUUUCUGAUUUUAAAGGUGACGAUGCUUAUUCUUUUAGUAACUAAGUGAAGUGAAAAAGAUGGGUAUCACCCAUCAUCUUCCCACCAGAAGUAACCCAACAGAGGAUUGAGCAUCA
B15: chr9:95099063:95099164:-|3pUTR|ENSG00000158169|unk|FALSE|unique (ssRNA)
RNA: GGGAGUUCUACAGUCCGACGAUCGAGCGCCCCUCCAACCAGGCUGUUAUUCCCCUGGACUCCGUGACAUCUGUGGAAUUUUUUAGCUCUUUAAAAUCUGUAAUUUGUUGUCUAUUUUUUCAUUCUAAAUAAAACUUCAGUUUGCAACAGAGGAUUGAGCAUCA
B16: ENSG00000100485:stop:overlap|stop_codon|ENSG00000100485|stop_codon|NA|stop_codon (ssRNA)
RNA: GGGAGUUCUACAGUCCGACGAUCAUAUAUAUACACAUAUAUAUACACACACACACACAUUUUAUGUGUCAGUUUUCAAUAUAUAGUUAACACAAAAGCUCUCAGCUUUUAAUUCAAAUAUAGGGAAUAUUUUUAACUUCACAGCAACAGAGGAUUGAGCAUCA
B17: chr20:58360308:58360409:+|3pUTR|ENSG00000124209|msi1|FALSE|unique (ssRNA)
RNA: GGGAGUUCUACAGUCCGACGAUCCAUUGAACAUGUUAGCCUAGGAUACGUACAGUAAAUUAACAAUGAUAGCAGCAGAUGCCUAGCUCAUCCUGGGUUUGCUUCUGACCUUGUCAUGUGUGUGCCACCAAACACGUUAUUGGCCAACAGAGGAUUGAGCAUCA
B18: chr7:80742902:80743013:-|3pUTR|ENSG00000075223|msi1_unk|total|mutant (ssRNA)
RNA: GGGAGUUCUACAGUCCGACGAUCUCAGAGUCACAGUUCCCUUUAUUUCACAUAAGCCCAAACUGACCGACAGUAACGGUGUUCCGUUUUAUACUAUAUUUGUGCUAUUUAAUUCUUUCUAUUUUCACAAUUAUUAAAUUGUGUCAACAGAGGAUUGAGCAUCA
B19: chr9:15474029:15474130:-|CDS|ENSG00000164985|unk|FALSE|unique (ssRNA)
RNA: GGGAGUUCUACAGUCCGACGAUCAAGAAAAGAGCCGGAUAAAAAAGAGGGGAAGAAAGAAGUUGAAUCAAAAAGGAAAAAUUUAGCUAAAACAGGGGUUACUUCAACCUCCGAUUCUGAAGAAGAAGGAGAUGAUCAAGAAGGCAACAGAGGAUUGAGCAUCA
B20: chr11:112085977:112086295:-|three_prime_utr|ENSG00000150779|control|control|control (ssRNA)
RNA: GGGAGUUCUACAGUCCGACGAUCUCACCCCACUGCCUCACUGGAUUGUGAGGAUCAUAUGCGACAAUGUAUUUGAAAACGACUAGAACAUUAUCGGAGGAAGGUGGACUCUGAAGUAGUCGCUGUAGACUAUGGAUGUAGAACCAACAGAGGAUUGAGCAUCA
B21: chr9:121180810:121180911:-|3pUTR|ENSG00000119396|msi1|FALSE|unique (ssRNA)
RNA: GGGAGUUCUACAGUCCGACGAUCUUUGGAUAAAUUUCCUGUUGUGUGGGUGGCAUUUUUCUUAACGAGAUUUGCUUCUGUCUUAGCCUCACACAGGGAAAAUAUCCAUUUAUCUUCUCUCUCGUGCUUAAUUAAUAGCUUUAUCAACAGAGGAUUGAGCAUCA
B22: chr5:150709129:150709230:-|3pUTR|ENSG00000132912|msi1|FALSE|unique (ssRNA)
RNA: GGGAGUUCUACAGUCCGACGAUCCACAAAACACUUUGAUCAUAAACUUUUUUCUUCAGAAGCCAAACUAACUUGCAGAAUAAUAGAGCCACUGGUUUAAUGUUUCCUCAAGAUAGGUUUUAGUGUAAGCUAGUAUUCUGUGUGCAACAGAGGAUUGAGCAUCA

This test deals with MSI1 full-length (mouse, UniProt Q61474 1-362). The test can be described thus: nsRBNS (natural sequence RNA bind-n-seq); RBNS binding buffer (assumed for nsRBNS): 25 mM Tris pH 7.5, 150 mM KCl, 3 mM MgCl2, 0.01% Triton X-100, 500 ug/ml BSA, 20 U/ml SUPERase-In, 4 C; UNK is unkempt and MSI1 is Musashi-1; names of the RNAs are library labels; protein concentration not given here; high values mean tight binding.
Chain of UniProt Q61474 (Q61474 whole entry): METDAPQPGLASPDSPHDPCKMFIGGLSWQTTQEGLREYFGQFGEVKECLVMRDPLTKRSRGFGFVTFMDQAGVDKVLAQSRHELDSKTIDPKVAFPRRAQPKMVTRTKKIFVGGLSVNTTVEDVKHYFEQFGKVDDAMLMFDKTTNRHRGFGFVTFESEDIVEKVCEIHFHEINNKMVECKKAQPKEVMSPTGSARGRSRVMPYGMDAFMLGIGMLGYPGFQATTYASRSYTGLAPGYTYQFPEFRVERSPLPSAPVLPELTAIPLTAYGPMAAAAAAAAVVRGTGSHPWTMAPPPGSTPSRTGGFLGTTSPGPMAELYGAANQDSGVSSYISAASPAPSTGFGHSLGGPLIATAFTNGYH
Turning to B1, the binding signal turned out to be 0.514 enrichment R.

Molecule B2 registered a binding signal of 0.821 enrichment R.

As to B3, the binding signal was determined as 1.55 enrichment R.

Regarding B4, the binding signal came out at 0.526 enrichment R.

Consider B5, for which the binding signal worked out at 0.49 enrichment R.

B6 displayed a binding signal of 0.297 enrichment R.

Turning to B7, the binding signal turned out to be 0.569 enrichment R.

B8 yielded a binding signal of 0.514 enrichment R.

As for B9, the binding signal came out at 0.483 enrichment R.

B10 displayed a binding signal of 0.705 enrichment R.

Molecule B11 yielded a binding signal of 0.399 enrichment R.

Consider B12, for which the binding signal was found to be 0.902 enrichment R.

With B13, the binding signal was 2.34 enrichment R.

As for B14, the binding signal worked out at 0.33 enrichment R.

The molecule B15 returned a binding signal of 1.23 enrichment R.

Molecule B16 showed a binding signal of 2.06 enrichment R.

In turn, B17 came in with a binding signal of 4.2 enrichment R.

Consider B18, for which the binding signal was 3.37 enrichment R.

In the case of B19, the binding signal turned out to be 0.83 enrichment R.

B20 returned a binding signal of 0.66 enrichment R.

In turn, B21 showed a binding signal of 1.11 enrichment R.

In turn, B22 returned a binding signal of 1.47 enrichment R.
